Measured values published in the supplement of paper PMC3334620.
The full ranking holds about 33,000 sequences; the median of “E-score (-0.5 to 0.5)” is about -0.054, and the highest 2% start at about 0.35. This is one part of the list.

molecular target: T1, Stb5 (UniProt P38699); assay: PBM E-score (8-mer binding enrichment) (E-score (-0.5 to 0.5)); higher = stronger / more preferred TF binding; most listed sequences are background and not binding sites; conditions: protein concentration: 200 nM; construct: GST-full length
T1 sequence: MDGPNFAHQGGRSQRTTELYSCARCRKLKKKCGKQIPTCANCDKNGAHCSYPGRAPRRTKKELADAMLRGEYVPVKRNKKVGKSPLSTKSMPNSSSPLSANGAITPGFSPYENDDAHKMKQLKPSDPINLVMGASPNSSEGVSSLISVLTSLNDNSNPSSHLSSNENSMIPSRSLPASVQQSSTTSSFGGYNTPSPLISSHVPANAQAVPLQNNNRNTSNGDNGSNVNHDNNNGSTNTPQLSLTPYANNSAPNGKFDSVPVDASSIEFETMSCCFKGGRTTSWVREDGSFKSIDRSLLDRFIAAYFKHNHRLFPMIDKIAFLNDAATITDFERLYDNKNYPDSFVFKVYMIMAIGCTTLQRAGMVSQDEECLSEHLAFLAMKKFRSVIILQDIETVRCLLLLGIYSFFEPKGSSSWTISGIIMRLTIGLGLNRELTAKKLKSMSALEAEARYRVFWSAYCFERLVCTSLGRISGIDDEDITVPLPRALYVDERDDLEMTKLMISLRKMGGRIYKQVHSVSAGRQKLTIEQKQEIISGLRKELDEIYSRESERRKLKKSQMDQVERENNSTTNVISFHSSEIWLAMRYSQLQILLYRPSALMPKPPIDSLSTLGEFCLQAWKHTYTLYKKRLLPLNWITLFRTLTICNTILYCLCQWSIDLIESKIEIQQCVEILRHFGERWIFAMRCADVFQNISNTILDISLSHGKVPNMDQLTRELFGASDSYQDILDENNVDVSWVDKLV
In short: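 Each ungapped eight-base word and its reverse complement, pooled, received an E-score from the Universal PBM Analysis Suite. Underlying scans, normalised with masliner, recorded fluorescent anti-GST bound to GST-tagged yeast transcription factors. These were applied at about 100-200 nM to universal all-10-mer Agilent arrays double-stranded by primer extension.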

Sequence	PBM E-score
AAAAACTT	0.0601
ACCAGCTG	-0.256
ACTTGCGG	0.151
TACGTACA	-0.0556
AAGTCAGG	-0.0915
GGCCCCAA	0.126
CGCTAGGC	0.00344
CATATCAA	-0.0419
AAGATAGA	-0.123
CAGGTATA	0.0512
AGCCGAAT	-0.0689
ACGTATTC	0.0547
AACGCTGG	-0.137
CCTTATCG	-0.0308
GCTTCGCC	0.065
AGGTACGC	-0.0909
CACCCAAA	-0.0454
CTGCGTAA	-0.11
ACCAATAA	0.0928
CTTTTGCA	-0.0933
TCCAGGAA	-0.214
CCATAGGA	-0.155
AAATTCAG	-0.221
ATCCAGAG	-0.273
GTGCAAAA	-0.162

Sequence	PBM E-score
GAACCACC	0.192
AGTCAGCG	0.0404
CTTGACGC	-0.0574
TCCCCTAA	-0.134
TCGCAAGA	-0.172
ACTGCTGC	-0.0258
GTCGGAGA	0.373
ATGGCTAG	-0.223
ATAGCTTA	-0.105
AACGTCGG	0.313
CATGATGC	-0.12
AGGAGACC	0.0594
ATGGCGCG	0.0581
GCAGCCCC	0.00528
CGTGTGCC	-0.19
CCGTGCGC	0.15
GGATATTA	0.304
ACCTTACG	0.0208
AGATGCAT	-0.242
CAACTCAG	-0.194
AGTAATGC	0.0229
AACCGAGA	0.0119
ATTCGTAG	-0.164
CGAGGCTC	-0.067
CACGCGGG	0.217

Sequence	PBM E-score
GTAAACCA	0.139
CTAGCGGA	0.169
CTCCCCAC	-0.126
GCTAGCCC	0.0259
TCGACAAA	-0.183
ATTTTCAG	-0.111
GGTAAGAA	0.203
ATCCTCTA	-0.285
ATGGCAGC	-0.144
AGGAAAAC	-0.152
CTCACTGC	-0.0459
TTTAAAAA	0.191
GACTATTA	-0.0815
ATAACGAT	-0.161
AGGGAATC	-0.137
CATGTAGG	-0.105
ATGGATAA	0.0427
AGCCGTCG	0.173
AGGGAAGA	-0.209
ACTGCGCG	0.122
AAATACTG	-0.0876
CACGGAGG	0.175
CAAGTATA	-0.122
CATACGGG	0.102
AGAGCCGA	0.224

Sequence	PBM E-score
AGCTTTCC	-0.0738
ATCCGAAC	0.177
AGGTGAGA	-0.192
GGCTATTA	-0.0171
CTAGTACA	-0.105
CTCTGTGA	-0.225
CGTACCAA	-0.067
ACGTGATG	-0.172
ACCACGAA	-0.247
GTGGACGA	-0.124
AAACAGCG	0.277
AGAACCCT	-0.0809
CTCCTAGA	-0.247
CAAATAGA	-0.098
AGCTGTTA	-0.234
GTACAAGA	-0.134
ATTGAGCA	-0.176
AAGCTGTA	-0.213
ACCCTCGA	-0.213
AAAATGAC	0.0143
CTTCAATC	-0.00212
ACATTAAT	0.0868
CGGAGGGC	-0.0349
ATAACCCA	-0.157
GATTGTCA	-0.108

Sequence	PBM E-score
AGAGAGAG	-0.277
CCGTTGGA	0.17
AACCTAGC	-0.17
CATTGCAC	-0.0998
CAATTCCC	0.168
TGCGTCAA	-0.071
TCCGACGA	0.252
CTCAGGAG	-0.181
ACGGCTGC	0.00857
CACCAGTG	-0.202
CCATCGAA	-0.127
CAGACTAG	-0.251
CGCTGGAC	-0.0182
AGTTTCAC	-0.201
CAGTTCCC	-0.00039
CAGTTGGG	-0.246
ATAATCGA	-0.00434
ACTTCCGC	0.266
AGAGTGGG	-0.0666
ACCGTCGC	0.332
ACGCATAC	-0.0599
ACATGACT	-0.0561
CGCAGTCA	0.0715
CTATTGCA	-0.148
ACCTGTGG	-0.0937

Sequence	PBM E-score
AAGCAAGA	-0.283
ACCATTGA	-0.106
CTTATAGA	0.0618
GACAATCC	-0.00999
TAAGTCAA	-0.123
ACCGGGCG	0.254
CAATTGGA	-0.155
ATGGTTTC	-0.0564
ATGCTAGC	0.102
AGTACTGA	-0.0745
CAGACCGC	0.272
ACTATCAG	-0.211
AATCAGTC	-0.0278
CCAAAAAC	-0.0575
AGATCTCG	-0.0591
CACATTCA	-0.0813
CAACCCCC	0.14
CGGCCCGA	0.34
CAAGTCCA	-0.171
CGAATAAG	0.021
CAACACGA	-0.102
AACGCAAG	-0.0897
GTATCGTA	-0.256
GCCTACGA	-0.254
ACCACGCC	0.044

Sequence	PBM E-score
TCGACCGA	0.0678
ACAAACCG	0.0581
GACAAGTA	0.0216
CGCTCGAA	-0.0626
AGGTCCTG	-0.205
AGAGCTTC	-0.175
AAACCACA	0.0295
ACGAAACG	0.0619
TAGATAAA	-0.133
CACTCAAC	-0.192
GGTGGATA	0.128
GCTGCTTA	0.0623
GACTAACC	0.101
ACATAGTG	0.0172
CCGTTTTA	0.337
CCAATTGG	-0.121
CCCACAAC	-0.0405
CGGTGGGA	0.257
AAAACTCT	-0.157
CACTCGCA	-0.203
ATAGGCCA	-0.052
AGCGTGCA	-0.0478
